Data from the CheMixHub viscosity set.
± gives the uncertainty stated by the source. Certain results were filed several times, with different values. This list holds those alone. There may be further records. The values listed for one entry repeat one measurement in other runs, samples, wells, individuals or studies. What stands in brackets tells the records apart. The letters are not those of the source and start again with each entry.

Structure (SMILES): C=CC(=O)OCC
- viscosity (298.15 K, 101 kPa): 0.533 ± 0.022 mPa·s [study A] and 0.518 ± 0.007 mPa·s [study B] and 0.537 ± 0.07 mPa·s [study C] and 0.53 ± 0.008 mPa·s [study D]
- viscosity (308.15 K, 101 kPa): 0.4643 ± 0.019 mPa·s [study A] and 0.456 ± 0.007 mPa·s [study B] and 0.472 ± 0.07 mPa·s [study C] and 0.465 ± 0.007 mPa·s [study D]

Structure (SMILES): CCCCn1cc[n+](C)c1.F[P-](F)(F)(F)(F)F
- viscosity (298.15 K, 101 kPa): 181.5 ± 73 mPa·s [study A] and 205.6 ± 7.3 mPa·s [study B] and 261 mPa·s [study C]

Structure (SMILES): COC(C)(C)C
- viscosity (303.15 K, 101 kPa): 0.3387 ± 0.0072 mPa·s [study A] and 0.359 ± 0.05 mPa·s [study B] and 0.349 ± 1 mPa·s [study C] and 0.349 ± 0.003 mPa·s [study D]

Structure (SMILES): CCc1ccccc1
- viscosity (308.15 K, 101 kPa): 0.567 ± 0.016 mPa·s [study A] and 0.5537 ± 0.014 mPa·s [study B] and 0.5484 ± 0.023 mPa·s [study C] and 0.5668 ± 0.0051 mPa·s [study D]

Structure (SMILES): Clc1ccccc1
- viscosity (298.15 K, 101 kPa): 0.75 ± 0.02 mPa·s [study A] and 0.754 ± 0.0076 mPa·s [study B] and 0.751 ± 0.008 mPa·s [study C] and 0.7824 ± 0.008 mPa·s [study D] and 0.7577 ± 0.02 mPa·s [study E] and 0.7542 ± 0.0065 mPa·s [study F] and 0.763 ± 0.076 mPa·s [study G]
- viscosity (303.15 K, 101 kPa): 0.702 ± 0.024 mPa·s [study A] and 0.713 ± 0.011 mPa·s [study B] and 0.7126 ± 0.029 mPa·s [study C] and 0.7134 ± 0.0068 mPa·s [study D] and 0.702 ± 0.015 mPa·s [study E] and 0.7215 ± 0.021 mPa·s [study F] and 0.675 ± 0.007 mPa·s [study G] and 0.7401 ± 0.0078 mPa·s [study H]
- viscosity (308.15 K, 101 kPa): 0.669 ± 0.018 mPa·s, 0.6775 ± 0.012 mPa·s, 0.6775 ± 0.023 mPa·s, 0.6685 ± 0.014 mPa·s, 0.669 ± 0.023 mPa·s, 0.6987 ± 0.0076 mPa·s, 0.669 ± 0.008 mPa·s, 0.678 ± 0.011 mPa·s, 0.669 ± 0.014 mPa·s, 0.7009 ± 0.07 mPa·s, 0.6795 ± 0.021 mPa·s [several studies]
- viscosity (313.15 K, 101 kPa): 0.6469 ± 0.0058 mPa·s, 0.638 ± 0.017 mPa·s, 0.637 ± 0.017 mPa·s, 0.6387 ± 0.011 mPa·s, 0.6387 ± 0.022 mPa·s, 0.628 ± 0.011 mPa·s, 0.63 ± 0.022 mPa·s, 0.6574 ± 0.0074 mPa·s, 0.63 ± 0.013 mPa·s, 0.6323 ± 0.026 mPa·s, 0.632 ± 0.011 mPa·s, 0.6434 ± 0.021 mPa·s [several studies]

Structure (SMILES): OC1CCCC1
- viscosity (313.15 K, 100 kPa): 5.76 ± 0.17 mPa·s [study A] and 5.442 mPa·s [study B]

Structure (SMILES): Clc1cccc2ccccc12
- viscosity (298.15 K, 101.33 kPa): 2.806 ± 0.063 mPa·s [study A] and 3.02 ± 0.15 mPa·s, 3.02 ± 0.17 mPa·s [study B] and 2.783 ± 0.12 mPa·s, 2.783 ± 0.11 mPa·s [study C]
- viscosity (303.15 K, 101.33 kPa): 2.487 ± 0.056 mPa·s [study A] and 2.707 ± 0.14 mPa·s, 2.707 ± 0.15 mPa·s [study B] and 2.502 ± 0.11 mPa·s, 2.502 ± 0.1 mPa·s [study C]
- viscosity (308.15 K, 101.33 kPa): 2.214 ± 0.051 mPa·s [study A] and 2.437 ± 0.12 mPa·s, 2.437 ± 0.13 mPa·s [study B] and 2.259 ± 0.1 mPa·s, 2.259 ± 0.091 mPa·s [study C]
